Not every entry of the source has a single result; some have several. Only these are listed. There may be further records. The values listed for one entry are repeats in other runs, samples, wells, individuals or studies. Marks such as (2×) stand for listed records that agree.
Test system: NCI-H1876 complex spheroid viability
Test: Anticancer human tumor NCI-H1876 cell line growth inhibition [LSD1];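 note: spheroids exposed to compounds for one week before readout; 100% = DMSO vehicle-treated spheroids so lower means fewer viable cells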
Conditions: stronger effect = lower value
From the text: Multicellular complex tumor spheroid response to LSD1 Inhibitor Iadademstat in combination with a variety of drugs and investigational agents in selected tumor cell lines
The current study was undertaken to assess response to LSD1 inhibitors in combination with standard-of-care drugs and investigational agents in solid tumor complex spheroid models as well as in the K-562 leukemia. Complex spheroids include a stromal component modeled by human endothelial cells (HUVEC) and fibroblasts modeled by human mesenchymal stem cells (MSCs). The concentration ranges selected for each drug and investigational agent were based upon clinically achievable concentrations if the clinical Cmax of the agent was known.
Compounds. The drugs and investigational agents used in this study are listed on Table 1. All of the agents used, including staurosporine (NSC755774) and gemcitabine (NSC613327), were obtained from the Developmental Therapeutics Program, NCI. FDA-approved anticancer drugs are available from the NCI at http://dtp.nci.nih.gov/branches/dscb/oncology_drugset_explanation.html. Drugs and investigational agents were >95% pure by proton nuclear magnetic resonance (NMR) and liquid chromatography/mass spectrometry (LC/MS). Stock solutions were prepared at 400x in DMSO, stored at -70 degrees C, and diluted in fresh medium prior to their use. The final concentration of DMSO in cell culture wells never exceeded 0.25% (v/v). The FDA-approved anticancer drug set is available from the Developmental Therapeutics Program at https://dtp.cancer.gov/organization/dscb/obtaining/available_plates.htm. All drugs and investigational agents were tested over a range starting from a high concentration at or near the clinical Cmax and decreasing in half-log increments. If the clinical Cmax for an agent had not been determined, the highest concentration tested was 10 microM.
Cell Lines. The patient-derived cancer cell (PDC) lines: 292921-168-R-J2-PDC, K24384-001-R-PDC, and 521955-158-R2-J5-PDC pancreatic carcinomas, 556581-035-R-J1 ovarian carcinoma, 324938-238-R-J1-PDC, 855422-203-R-J1-PDC and 883617-216-R-J1-PDC urothelial bladder carcinomas, 743489-274-T-PDC renal cell carcinoma, 138582-R-J1 Merkel cell tumor, K60290-347-R-J1 and K57222-313-R-J1-PDC glioblastomas, 653999-131-R-J2-PDC, LG0703-F948-PDC, and 349418-098-R-PDC non-small cell lung carcinomas, 885512-296-R-J2-PDC, 171881-019-R-J1-PDC breast carcinomas and 186277-243-T-J2-PDC and 233499-124-R-J2-PDC colon carcinomas were obtained from the NCI Patient-Derived Models Repository (PDMR, https://pdmr.cancer.gov). The established cell lines NCI/ADR-RES (RRID:CVCL_14520 and OVCAR-5 (RRID:CVCL_1628) ovarian carcinomas, 786-O (RRID:CVCL_1051) and A498 (RRID:CVCL_A498) renal cell carcinoma, NCI-H211 (ATCC, cat. CRL-5824; RRID:CVCL_1529), NCI-H196 (ATCC, cat. CRL-5823, RRID:CVCL_1509), SW 1271 (ATCC, cat. CRL-2177, RRID:CVCL_1716) and NCI-H1876 (ATCC, cat. CRL-5902, RRID:CVCL_1503) small cell lung carcinomas, MDA-MB-231 (RRID:CVCL_0062) and MDA-MB-468 (RRID:CVCL_0419)breast carcinomas (10-12). Pooled donor human umbilical vein endothelial cells (HUVEC, Lonza, cat. CC-2519) and human mesenchymal stem cells (hMSC, Lonza, cat. PT-2501) were purchased from Lonza (Walkersville, MD).
Cell Culture. All cells were maintained in an incubator at 37 degrees C and 5% CO2 with 95% humidity. The PDC lines were cultured according to standard operating procedures established by the NCI PDMR (https://pdmr.cancer.gov). […]

| SMILES | viability, T/C (compound alone 0.1 µM) | viability, T/C (compound alone 0.316 µM) | viability, T/C (compound alone 1 µM) | viability, T/C (compound alone 3.16 µM) | viability, T/C (compound alone 10 µM) |
| --- | --- | --- | --- | --- | --- |
| NC1CCC(NC2CC2c2ccccc2)CC1 (stereo not given) | 104 (4×), 103, 105 (2×), 102 (2×), 107 (2×), 121, 95.7, 111, 99.8, 108 (2×), 97.9, 93.5, 98.9, 117, 112, 109, 98.1, 92.1% |  |  |  |  |
| NC1CC1c1ccc(-c2cccc(O)c2)cc1 (stereo not given) |  | 93, 106, 105 (4×), 94.2, 109 (2×), 101, 93.9, 115, 110, 113, 111, 102, 90, 100, 107, 118, 96, 95.2, 95.1, 93.2% | 100, 106 (4×), 94.6, 103, 107 (3×), 105 (2×), 111 (2×), 101, 104, 115 (3×), 122, 112 (2×), 97.7, 102, 99.8% | 104 (2×), 112 (2×), 116, 95.6, 102 (2×), 105 (3×), 109, 98.6, 90.1, 113, 100, 114, 107, 91.6, 106, 110, 97.3, 101 (2×), 99.4% | 91.5, 104 (4×), 93.9, 103 (3×), 96.9, 99.7, 100, 79.3, 111, 97, 106, 108, 116, 114, 107, 109, 98.8, 94.6, 89.8, 90.2% |

Reference: PubChem BioAssay AID1918957 (Molecular Pharmacology Branch, DTP, NCI, 2023)
